Reference: the supplement of paper PMC10126150
Values marked as one replicate rest on one cluster of the flow cell; about a third of the high ones do not repeat.

The sequences below were run on ATP (assay: switch fluorescence ratio, 500 uM ATP over buffer (Cy3 cluster intensity, sum of 5 cycles each) (fold (ratio)); higher = stronger signal-on switching upon ATP binding; sequences stand for … in TCGTCGGCAGCGTCAGATGTGTATAAGAGACAGTTTTTTTTTTTTTTTTTTTTTTTTT…TC). Settings: aptamer strand: ATP DNA aptamer (quencher-CACCTGGGGGAGTATTGCGGAGGAAGG + anchor), 100 nM annealed; ATP concentration: 500 uM; one replicate.
Outline: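 Exposure to 500 uM ATP lasted 15 min at 22 °C before imaging, and a selection-buffer image was taken beforehand, for Cy3-labelled switching-strand clusters on a modified Illumina MiSeq flow-cell annealed to 100 nM quencher-labelled ATP aptamer. Five buffer/ATP cycles were run with NaOH stripping and re-annealing between them. The fluorescence ratio per cluster is summed target-cycle over summed buffer-cycle Cy3 intensity, averaged per switch-domain sequence. Clusters outside 100-1000 RFU were excluded.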
Work on GCGTAATTGT yielded a switch fluorescence ratio of 1. GCGTACTCAG showed a switch fluorescence ratio of 1.07. Sequence GCGTACTTGA has a switch fluorescence ratio of 0.993. With GCGTAGAGTG the switch fluorescence ratio was 1.01. Work on GCGTAGAGTT yielded a switch fluorescence ratio of 1.06. GCGTAGGTTT gave a switch fluorescence ratio of 0.981. GCGTAGTGAG gave a switch fluorescence ratio of 1. Work on GCGTCACGTA yielded a switch fluorescence ratio of 1.1. In the case of GCGTCAGCAG, the switch fluorescence ratio was 1.04. For GCGTCATGGT, the switch fluorescence ratio was 0.989. GCGTCCACAC showed a switch fluorescence ratio of 1.04. With GCGTCCGAAG the switch fluorescence ratio was 1.32. GCGTCCTGGC showed a switch fluorescence ratio of 1. For GCGTCGGGGT, the switch fluorescence ratio was 1.01. Sequence GCGTCGTAAC has a switch fluorescence ratio of 0.995. GCGTGATTTT showed a switch fluorescence ratio of 0.99. GCGTGCGGTG showed a switch fluorescence ratio of 0.98. Sequence GCGTGCTAGT has a switch fluorescence ratio of 0.993. With GCGTGCTTGG the switch fluorescence ratio was 1.01. In the case of GCGTGGTGCT, the switch fluorescence ratio was 1.03. GCGTGGTTAT gave a switch fluorescence ratio of 1. Work on GCGTTAATGA yielded a switch fluorescence ratio of 0.961. In the case of GCGTTCACCT, the switch fluorescence ratio was 1.07. Work on GCGTTCAGTG yielded a switch fluorescence ratio of 0.974. Sequence GCGTTGGGA has a switch fluorescence ratio of 0.985. GCGTTTGTTA was tested, and the switch fluorescence ratio was 1.04. GCGTTTGTTT was tested, and the switch fluorescence ratio was 0.995. With GCTAAAAGAG the switch fluorescence ratio was 0.992. GCTAAAGCCG was tested, and the switch fluorescence ratio was 1.02. Work on GCTAAAGTTG yielded a switch fluorescence ratio of 0.931. GCTAAATCCC gave a switch fluorescence ratio of 1.08. With GCTAATTAAA the switch fluorescence ratio was 1. In the case of GCTACCAGTT, the switch fluorescence ratio was 1.08. With GCTACGATCT the switch fluorescence ratio was 0.988. In the case of GCTACTATAG, the switch fluorescence ratio was 1. GCTACTGGC gave a switch fluorescence ratio of 0.973. Work on GCTACTTACT yielded a switch fluorescence ratio of 1.24. In the case of GCTAGCACAT, the switch fluorescence ratio was 1. GCTAGCCGGT was tested, and the switch fluorescence ratio was 0.971. GCTAGCTCCT gave a switch fluorescence ratio of 1.05. GCTAGGAGTG showed a switch fluorescence ratio of 0.965. GCTAGGCCAT showed a switch fluorescence ratio of 0.972. GCTAGGCCGA showed a switch fluorescence ratio of 1.02. With GCTAGGTAGG the switch fluorescence ratio was 0.985. GCTAGGTCGG was tested, and the switch fluorescence ratio was 0.948. For GCTAGTGTTT, the switch fluorescence ratio was 1.01. GCTAGTTTAG was tested, and the switch fluorescence ratio was 0.965. Work on GCTATCCAGA yielded a switch fluorescence ratio of 1.04. Sequence GCTATCCCGT has a switch fluorescence ratio of 0.962. GCTATCCTCG was tested, and the switch fluorescence ratio was 1.05. GCTATGAGCG showed a switch fluorescence ratio of 1.03. GCTATGCAGC gave a switch fluorescence ratio of 1.06. GCTATTCTCG was tested, and the switch fluorescence ratio was 1.2. GCTATTGTTA showed a switch fluorescence ratio of 0.943. In the case of GCTATTTAGC, the switch fluorescence ratio was 1.1. GCTCAACCAC gave a switch fluorescence ratio of 1.07. GCTCAACTGC was tested, and the switch fluorescence ratio was 1.03. GCTCAATAGG showed a switch fluorescence ratio of 1.03. GCTCAGATAC was tested, and the switch fluorescence ratio was 2.07. GCTCAGCTAG gave a switch fluorescence ratio of 1.25. For GCTCAGTAAG, the switch fluorescence ratio was 1.06. GCTCAGTTTT was tested, and the switch fluorescence ratio was 0.966. GCTCATCGTT showed a switch fluorescence ratio of 0.984. With GCTCATCTAT the switch fluorescence ratio was 1.01. GCTCCAAGAT gave a switch fluorescence ratio of 3.16. GCTCCAAGCG was tested, and the switch fluorescence ratio was 1.05. Work on GCTCCGGCCG yielded a switch fluorescence ratio of 1.29. GCTCCGGTCA was tested, and the switch fluorescence ratio was 1.82. Sequence GCTCCTGTGA has a switch fluorescence ratio of 1.3. In the case of GCTCGAGCAA, the switch fluorescence ratio was 1.04. GCTCGAGTTT showed a switch fluorescence ratio of 1.05. GCTCGATTAT was tested, and the switch fluorescence ratio was 0.984. In the case of GCTCGCATCG, the switch fluorescence ratio was 1.11. Work on GCTCTATCTG yielded a switch fluorescence ratio of 0.964. GCTCTGACCT gave a switch fluorescence ratio of 1.2. With GCTCTGGAAT the switch fluorescence ratio was 1.07. In the case of GCTCTGTGTC, the switch fluorescence ratio was 1.14. GCTCTTGCGG showed a switch fluorescence ratio of 1.05. In the case of GCTGACAAAA, the switch fluorescence ratio was 1.01. In the case of GCTGACGAGG, the switch fluorescence ratio was 1.07. For GCTGACTTGA, the switch fluorescence ratio was 0.968. For GCTGAGGTTC, the switch fluorescence ratio was 1.06. For GCTGATAGGA, the switch fluorescence ratio was 1. Work on GCTGATGATT yielded a switch fluorescence ratio of 0.977. GCTGATGGA gave a switch fluorescence ratio of 1. In the case of GCTGATGTGT, the switch fluorescence ratio was 1.04. GCTGCAGCGA was tested, and the switch fluorescence ratio was 1.01. For GCTGCAGGT, the switch fluorescence ratio was 1.12. GCTGCCAATT was tested, and the switch fluorescence ratio was 1.05. In the case of GCTGCCCGGC, the switch fluorescence ratio was 1.02. With GCTGCCTCAT the switch fluorescence ratio was 1.06. With GCTGCGAGGC the switch fluorescence ratio was 1.16. For GCTGGAAGCT, the switch fluorescence ratio was 1.13. GCTGGACAAT gave a switch fluorescence ratio of 1.02. Sequence GCTGGAGACA has a switch fluorescence ratio of 1.04. GCTGGAGGCT showed a switch fluorescence ratio of 0.965. In the case of GCTGGCAGCA, the switch fluorescence ratio was 1.05. Work on GCTGGCCCTG yielded a switch fluorescence ratio of 0.971. In the case of GCTGGCCTTC, the switch fluorescence ratio was 1. In the case of GCTGGCGGTG, the switch fluorescence ratio was 0.966. Work on GCTGGGATGG yielded a switch fluorescence ratio of 0.984. GCTGGGTCAG gave a switch fluorescence ratio of 0.989. Sequence GCTGGGTCTA has a switch fluorescence ratio of 1.06. GCTGGTCGGC was tested, and the switch fluorescence ratio was 1.03. GCTGTAAAAT showed a switch fluorescence ratio of 0.984. With GCTGTAAAGT the switch fluorescence ratio was 1.02. GCTGTCGCCG showed a switch fluorescence ratio of 0.956. Work on GCTGTCTACG yielded a switch fluorescence ratio of 0.995. Sequence GCTGTCTGGC has a switch fluorescence ratio of 1.02. Sequence GCTGTGATAC has a switch fluorescence ratio of 5.3. In the case of GCTGTGCGTT, the switch fluorescence ratio was 1.03. GCTGTGGTTT showed a switch fluorescence ratio of 1.04. With GCTGTTTATT the switch fluorescence ratio was 0.982. For GCTGTTTTT, the switch fluorescence ratio was 0.991. Work on GCTTAAAATA yielded a switch fluorescence ratio of 0.974. With GCTTAAGAGC the switch fluorescence ratio was 0.957. For GCTTACCTCG, the switch fluorescence ratio was 1.03. GCTTAGCCCG gave a switch fluorescence ratio of 0.995. In the case of GCTTATATAA, the switch fluorescence ratio was 0.994. Sequence GCTTATATGG has a switch fluorescence ratio of 0.993. With GCTTATGGGT the switch fluorescence ratio was 1.02. For GCTTATTTTG, the switch fluorescence ratio was 1.05. GCTTCAGATT gave a switch fluorescence ratio of 0.97. GCTTCATAGG was tested, and the switch fluorescence ratio was 0.96. With GCTTCCATTG the switch fluorescence ratio was 1.03. GCTTCCCGGA showed a switch fluorescence ratio of 1.03. Sequence GCTTCGGCCA has a switch fluorescence ratio of 1.04. Sequence GCTTCGGCGT has a switch fluorescence ratio of 0.969. In the case of GCTTCGTGCT, the switch fluorescence ratio was 1.03. GCTTCGTGTG gave a switch fluorescence ratio of 0.999. GCTTCTATCA was tested, and the switch fluorescence ratio was 1.01. GCTTCTCGA showed a switch fluorescence ratio of 0.975. GCTTCTGT showed a switch fluorescence ratio of 0.976. In the case of GCTTCTGTCC, the switch fluorescence ratio was 1.03. With GCTTCTTTGG the switch fluorescence ratio was 1.02. GCTTGACACG gave a switch fluorescence ratio of 1.04. For GCTTGAGTAT, the switch fluorescence ratio was 0.987. Sequence GCTTGATTCT has a switch fluorescence ratio of 0.992. In the case of GCTTGCATTG, the switch fluorescence ratio was 1.01. Work on GCTTGCCAGT yielded a switch fluorescence ratio of 1.02. GCTTGCCTCA was tested, and the switch fluorescence ratio was 1.38. GCTTGGATTC gave a switch fluorescence ratio of 0.995. For GCTTGGCGGA, the switch fluorescence ratio was 1. GCTTGGGGCT was tested, and the switch fluorescence ratio was 0.992. GCTTGTAATG was tested, and the switch fluorescence ratio was 0.976. Sequence GCTTTAATA has a switch fluorescence ratio of 0.999. Work on GCTTTATGGA yielded a switch fluorescence ratio of 1.03. In the case of GCTTTCATCT, the switch fluorescence ratio was 0.986. Sequence GCTTTCCGTC has a switch fluorescence ratio of 1.06. GCTTTCGTTG showed a switch fluorescence ratio of 0.984. For GCTTTGCGCC, the switch fluorescence ratio was 0.964. With GCTTTGGAGT the switch fluorescence ratio was 1.05. GCTTTGTGGG showed a switch fluorescence ratio of 1. Sequence GCTTTTCGAG has a switch fluorescence ratio of 1.04. In the case of GCTTTTTCGA, the switch fluorescence ratio was 1.04. GGAAAAAGA showed a switch fluorescence ratio of 0.979. GGAAACATGG gave a switch fluorescence ratio of 1.07. For GGAAAGGCA, the switch fluorescence ratio was 1.03. Work on GGAAAGTTTT yielded a switch fluorescence ratio of 0.972. GGAAATGGG showed a switch fluorescence ratio of 0.96. Work on GGAACAAGGG yielded a switch fluorescence ratio of 0.997. In the case of GGAACACCGT, the switch fluorescence ratio was 0.927. For GGAACGCCCC, the switch fluorescence ratio was 1.21. Work on GGAACTAAG yielded a switch fluorescence ratio of 1.01. With GGAACTTT the switch fluorescence ratio was 0.962. For GGAAGAAATT, the switch fluorescence ratio was 0.972. Work on GGAAGAACAG yielded a switch fluorescence ratio of 1.07. GGAAGACCGT showed a switch fluorescence ratio of 1.01. With GGAAGACGCT the switch fluorescence ratio was 0.986. In the case of GGAAGAGG, the switch fluorescence ratio was 1.02. GGAAGATCTT was tested, and the switch fluorescence ratio was 1.01. In the case of GGAAGCAGTG, the switch fluorescence ratio was 1.09. Sequence GGAAGCCACT has a switch fluorescence ratio of 1.02. GGAAGGCACA gave a switch fluorescence ratio of 1.05. Work on GGAAGGTTGG yielded a switch fluorescence ratio of 0.957. Sequence GGAAGTAAG has a switch fluorescence ratio of 0.967. GGAAGTACTA showed a switch fluorescence ratio of 1.21. GGAATAACGA gave a switch fluorescence ratio of 1.08. With GGAATAGTCA the switch fluorescence ratio was 1.06. Work on GGAATATATC yielded a switch fluorescence ratio of 1.04. GGAATCCTGG gave a switch fluorescence ratio of 0.984. GGAATCCTGT was tested, and the switch fluorescence ratio was 1.01. GGAATCGAGT gave a switch fluorescence ratio of 1.02. GGAATCTCTC was tested, and the switch fluorescence ratio was 1.03. GGAATGATGG was tested, and the switch fluorescence ratio was 0.979. For GGAATTAGCA, the switch fluorescence ratio was 0.985. Work on GGAATTCGTA yielded a switch fluorescence ratio of 0.923. GGAATTGAGG showed a switch fluorescence ratio of 0.941. GGACAAGCAT gave a switch fluorescence ratio of 1.09. With GGACACCCGC the switch fluorescence ratio was 1.11. Work on GGACACGTGG yielded a switch fluorescence ratio of 0.941. In the case of GGACACTCTA, the switch fluorescence ratio was 1.05. With GGACAGTAGC the switch fluorescence ratio was 1.08. GGACATTCGT gave a switch fluorescence ratio of 0.998. In the case of GGACCAGCCT, the switch fluorescence ratio was 1.09. GGACCAGGCT was tested, and the switch fluorescence ratio was 0.992. GGACCCAAGC showed a switch fluorescence ratio of 1.04. In the case of GGACCGGTGC, the switch fluorescence ratio was 1.01. Work on GGACGCACGC yielded a switch fluorescence ratio of 2.71. GGACGCATCA gave a switch fluorescence ratio of 1.12.
